Assay results taken from the BET-seq Pho4 binding data (Le et al. 2018).
The other results are listed elsewhere or left out. Values were computed here from the reads of four pooled replicates and scatter widely.

Biological target: T1, Pho4 (S. cerevisiae) (UniProt P07270)
T1 sequence: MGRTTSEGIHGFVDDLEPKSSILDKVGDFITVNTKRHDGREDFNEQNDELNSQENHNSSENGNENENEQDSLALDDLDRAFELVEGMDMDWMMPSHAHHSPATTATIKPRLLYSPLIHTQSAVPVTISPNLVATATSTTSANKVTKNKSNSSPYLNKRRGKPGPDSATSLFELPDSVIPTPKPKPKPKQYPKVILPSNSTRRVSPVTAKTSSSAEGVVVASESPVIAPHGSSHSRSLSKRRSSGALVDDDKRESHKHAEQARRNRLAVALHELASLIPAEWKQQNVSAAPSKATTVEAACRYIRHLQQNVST
Assay: relative binding free energy (BET-seq); higher = weaker binding
Details: reference: library average

Sequence	relative binding free energy [kcal/mol]
TTGGTCACGTGGTTCA	0.07
GATTTCACGTGCTAGT	0.38
CTCGGCACGTGGAGGG	-0.08
TAAGACACGTGGTATA	-0.1
AATGGCACGTGAAGTT	0.07
GGTAGCACGTGTAGTA	-0.06
GGTAGCACGTGGGAAT	0.06
ATTATCACGTGGCGGG	0.05
GTATGCACGTGGATAT	0.08
AGGGGCACGTGGCGTT	-0.16
TTGGGCACGTGGAGGA	-0.14
GAGTACACGTGACGGT	0.16
ATATACACGTGTAATG	0.06
GTGGGCACGTGTTTGT	-0.07
TTATACACGTGTACTT	0
CGTGTCACGTGTTGGC	0.08
TCCGTCACGTGAGGTG	0.23
ACTAGCACGTGGGTTG	-0.2
ATGGGCACGTGACTGG	0.09
GAGGTCACGTGGTGCC	0.19
AAGTCCACGTGAGTGG	0.19
TGTCGCACGTGTGTGC	-0.05
AGTGTCACGTGGGTTA	-0.02

Sequence	relative binding free energy [kcal/mol]
GCGTACACGTGGCGGT	0.03
TATAACACGTGTTTAA	-0.09
GTGTACACGTGTGCGT	0.05
TTCGACACGTGCGGGT	-0.03
GTTTGCACGTGTTTAC	0.11
GCAGTCACGTGGTATT	0.08
TGGATCACGTGCTTGT	0.09
ATAGACACGTGGCTGG	0.05
TGAGACACGTGTGTGC	0.08
TCTGACACGTGGGTTC	0.03
CGTGTCACGTGCGGCT	0.1
CTTAGCACGTGAATGG	0.28
GAGGGCACGTGCAGTA	0.05
CTGTACACGTGGACGG	0.27
GTAAGCACGTGTTCGT	-0.08
CGTCTCACGTGGTTAT	0.24
AAGAACACGTGGGTTG	-0.03
TGGCACACGTGATTTT	0.25
GGGTTCACGTGAAGAA	0.41
CATATCACGTGGGGCA	0.14
GGTCGCACGTGGGGTG	-0.19
TTTAGCACGTGATATA	0.15
GTCTTCACGTGGGCGT	0.14

Sequence	relative binding free energy [kcal/mol]
ATTGACACGTGTGTTC	0.13
TTTGACACGTGCATTG	-0.12
CTAGTCACGTGATATG	0.33
TTGCTCACGTGTTGGA	0.24
CGAGGCACGTGCGGGG	-0.12
TCCGGCACGTGCGGGG	-0.16
TGTTACACGTGGTTTT	0.17
GGGATCACGTGATAGG	0.19
GAGTCCACGTGGGTAG	-0.07
TAATGCACGTGGGGAG	-0.01
TGTTCCACGTGTGTTC	0.13
ATTGGCACGTGTATAT	-0.08
GATGTCACGTGAAGGA	0.47
ATTTTCACGTGTCACG	0.29
AGGCGCACGTGATAGT	-0.01
TTTGGCACGTGGTTCG	-0.11
TTGAACACGTGCGGGA	0.1
AGGGTCACGTGTCGGG	0.18
GAGGACACGTGGGAGG	-0.03
GGAGGCACGTGGTATG	-0.12
GAGAGCACGTGGGGGT	-0.11
GGTATCACGTGGTAAA	0.23
AGCGGCACGTGGTGAG	-0.06

Sequence	relative binding free energy [kcal/mol]
CGGCTCACGTGGTTGT	0.18
AGGGTCACGTGTGGTA	0.12
GTCTGCACGTGATTTG	0.14
TGGCGCACGTGGGTCA	-0.16
TTTGCCACGTGGTTTG	-0.1
GGGGACACGTGGTAAC	0.12
TGATCCACGTGCGGCG	0.18
ATGGGCACGTGTTGAT	-0.09
TAGGACACGTGAGTAG	0.25
TTTAACACGTGCGGAG	0.02
AAAGGCACGTGGGGAC	-0.2
TTGTTCACGTGCTTAA	0.17
GTTGTCACGTGGCATG	-0.08
CCTTTCACGTGAGGGG	0.42
CGTGGCACGTGCGGTC	-0.16
TGTGGCACGTGTGTAT	-0.08
ATGGACACGTGATGAT	0.28
GGGTTCACGTGGGCGT	0.31
TGTACCACGTGGGGTG	-0.06
TGGGACACGTGTTTAA	-0.1
GAGGCCACGTGGTAAG	0.02
GAGGTCACGTGGCCGG	0.17
AACGGCACGTGGCTGG	0

Sequence	relative binding free energy [kcal/mol]
GTTCACACGTGGTCGG	0.18
TTGACCACGTGGGAGG	-0.12
GTGGCCACGTGTAGTA	-0.06
TTGCACACGTGTGATT	0.06
CGAGGCACGTGTAATG	0.08
ACTTTCACGTGGTTAT	0.15
GTGATCACGTGTTGGG	0.13
GCGGACACGTGTTATG	0.23
ATAGTCACGTGGCTTT	0
TTTAGCACGTGATGAG	0.14
GGGTGCACGTGGGGCA	-0.07
TCTAACACGTGGGTTT	-0.2
GAATGCACGTGGTTCG	-0.02
TGATGCACGTGATGAG	0.13
GATGTCACGTGAATAG	0.37
GGGTTCACGTGGAACG	0.36
TAAAACACGTGGTAAT	0.15
TGTGTCACGTGTTTGC	0.03
TTGTTCACGTGTAGGT	0.17
TAATGCACGTGCATGT	-0.18
GTTAGCACGTGTTAAT	-0.07
GTGGTCACGTGTCGTA	0.16
GGATACACGTGGTGTG	0.07
